Reference: the supplement of paper PMC4967469
A lower IC50 marks a more sensitive line; fits outside the tested doses are given as limits. AUC sums up the same curve from the lowest dose to the 256-fold higher top dose; values near 1 show little effect. For some assays here: An inferred top dose comes from the curve model; the source does not state it. For some assays here: Where an entry number is given, a second screen of the drug exists; the two often differ.

How the values were obtained:
Test in all cases: Viability of human cancer cell lines after 72 h of drug (GDSC screen)
[1] = compound: O=C(/C=C/c1ccc(CN(CCO)CCc2c[nH]c3ccccc23)cc1)NO [LAQ824]; conditions: top dose 1.024 µM; top dose inferred
Description: (§1)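 Human cancer cell lines in 384-well plates, medium with 10% serum, drug for 72 h over a 256-fold dose range (nine 2-fold or five 4-fold steps up to the top dose). Adherent lines were fixed and stained with the nucleic acid dye Syto60, suspension lines read with resazurin; signal relative to control wells, capped at 0 and 100%. One two-parameter sigmoid per drug and line, fitted in a mixed model over all curves with the slope shared within a line.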

[2] = compound: O=C(Nc1cccc(Nc2ncc(Br)c(NCCc3cnc[nH]3)n2)c1)N1CCCC1 [BX-912]; conditions: top dose 10.24 µM; top dose inferred
Description: as §1

[3] = compound: O=S(=O)(O)c1ccc2cc(N=Nc3cc(S(=O)(=O)O)c4cccnc4c3O)ccc2c1 [NSC-87877]; conditions: top dose 16 µM; top dose inferred
Description: as §1

[4] = compound: CC/C(=C(\c1ccccc1)c1ccc(OCCN(C)C)cc1)c1ccccc1 [Tamoxifen]; conditions: top dose 5 µM
Description: as §1

[5] = compound: O=C(Nc1ccc(OC(F)(F)F)cc1)c1sccc1NCc1ccnc2ccccc12 [OSI-930]; conditions: top dose 10.24 µM
Description: as §1

[6] = compound: Cc1c(N)nc([C@H](CC(N)=O)NC[C@H](N)C(N)=O)nc1C(=O)N[C@H](C(=O)N[C@H](C)[C@@H](O)[C@H](C)C(=O)N[C@H](C(=O)NCCc1nc(-c2nc(C(=O)NCCC[S+](C)C)cs2)cs1)[C@@H](C)O)[C@@H](OC1OC(CO)C(O)C(O)C1OC1OC(CO)C(O)C(OC(N)=O)C1O)c1cnc[nH]1 [Bleomycin]
Description: as §1

[7] = compound: Cc1ccc(NC(=O)c2ccc(CN3CCN(C)CC3)cc2)cc1Nc1nc(-c2cccnc2)cs1 [Masitinib]; conditions: top dose 20 µM
Description: as §1

[8] = compound: CCCC(=O)OCc1ccc(OC(=O)/C=C(C)/C=C/C=C(C)/C=C/C2=C(C)CCCC2(C)C)cc1 [VNLG/124]; conditions: top dose 5.12 µM; top dose inferred
Description: as §1

[9] = compound: CN(NC(=O)CC(=O)NN(C)C(=S)c1ccccc1)C(=S)c1ccccc1 [Elesclomol]; conditions: top dose 0.2 µM; top dose inferred
Description: as §1

[10] = top dose 50 µM, screen: GDSC drug entry 1378, top dose inferred
[11] = top dose 64 µM, screen: GDSC drug entry 190

## MONO-MAC-6 (acute myeloid leukaemia, suspension)
[1]
  AUC: 0.392
  IC50: 31.8 nM
[2]
  AUC: 0.103
  IC50: < 0.04 µM
[3]
  AUC: 0.983
  IC50: > 16 µM
[4]
  AUC: 0.97
  IC50: > 5 µM
[5]
  AUC: 0.951
  IC50: > 10.2 µM
[6]; [10]
  AUC: 0.842
  IC50: 38 µM
[6]; [11]
  AUC: 0.495
  IC50: 3.86 µM
[7]
  AUC: 0.853
  IC50: 17 µM
[8]
  AUC: 0.854
  IC50: 4.39 µM
[9]
  AUC: 0.832
  IC50: 138 nM

## SK-N-FI (neuroblastoma, adherent)
[1]
  AUC: 0.709
  IC50: 247 nM
[2]
  AUC: 0.909
  IC50: > 10.2 µM
[3]
  AUC: 0.986
  IC50: > 16 µM
[4]
  AUC: 0.972
  IC50: > 5 µM
[5]
  AUC: 0.988
  IC50: > 10.2 µM
[6]; [10]
  AUC: 0.9
  IC50: > 50 µM
[6]; [11]
  AUC: 0.965
  IC50: > 64 µM
[7]
  AUC: 0.929
  IC50: > 20 µM
[8]
  AUC: 0.988
  IC50: > 5.12 µM
[9]
  AUC: 0.75
  IC50: 65 nM

## MC116 (B-cell lymphoma, suspension)
[1]
  AUC: 0.341
  IC50: 26.5 nM
[2]
  AUC: 0.629
  IC50: 1.31 µM
[3]
  AUC: 0.999
  IC50: > 16 µM
[4]
  AUC: 0.997
  IC50: > 5 µM
[5]
  AUC: 0.999
  IC50: > 10.2 µM
[6]; [10]
  AUC: 0.99
  IC50: > 50 µM
[6]; [11]
  AUC: 0.391
  IC50: 2.18 µM
[7]
  AUC: 0.927
  IC50: 14.2 µM
[8]
  AUC: 0.999
  IC50: > 5.12 µM
[9]
  AUC: 0.997
  IC50: > 200 nM

## NCI-H2081 (small cell lung carcinoma, suspension)
[1]
  AUC: 0.482
  IC50: 56.8 nM
[2]
  AUC: 0.591
  IC50: 1.15 µM
[3]
  AUC: 0.978
  IC50: > 16 µM
[4]
  AUC: 0.988
  IC50: > 5 µM
[5]
  AUC: 0.975
  IC50: > 10.2 µM
[6]; [10]
  AUC: 0.962
  IC50: > 50 µM
[6]; [11]
  AUC: 0.928
  IC50: > 64 µM
[7]
  AUC: 0.925
  IC50: > 20 µM
[8]
  AUC: 0.987
  IC50: > 5.12 µM
[9]
  AUC: 0.91
  IC50: > 200 nM

## COR-L88 (small cell lung carcinoma, adherent)
[1]
  AUC: 0.381
  IC50: 28.3 nM
[2]
  AUC: 0.889
  IC50: > 10.2 µM
[3]
  AUC: 0.982
  IC50: > 16 µM
[4]
  AUC: 0.975
  IC50: > 5 µM
[5]
  AUC: 0.986
  IC50: > 10.2 µM
[6]; [10]
  AUC: 0.952
  IC50: > 50 µM
[6]; [11]
  AUC: 0.811
  IC50: 42.3 µM
[7]
  AUC: 0.896
  IC50: > 20 µM
[8]
  AUC: 0.986
  IC50: > 5.12 µM
[9]
  AUC: 0.983
  IC50: > 200 nM

## LNZTA3WT4 (glioma, adherent)
[1]
  AUC: 0.761
  IC50: 356 nM
[2]
  AUC: 0.967
  IC50: > 10.2 µM
[3]
  AUC: 0.978
  IC50: > 16 µM
[4]
  AUC: 0.951
  IC50: > 5 µM
[5]
  AUC: 0.966
  IC50: > 10.2 µM
[6]; [10]
  AUC: 0.713
  IC50: 12.3 µM
[6]; [11]
  AUC: 0.794
  IC50: 28.8 µM
[7]
  AUC: 0.974
  IC50: > 20 µM
[8]
  AUC: 0.978
  IC50: > 5.12 µM
[9]
  AUC: 0.56
  IC50: 18.2 nM

## IPC-298 (melanoma, adherent)
[1]
  AUC: 0.58
  IC50: 105 nM
[2]
  AUC: 0.958
  IC50: > 10.2 µM
[3]
  AUC: 0.985
  IC50: > 16 µM
[4]
  AUC: 0.986
  IC50: > 5 µM
[5]
  AUC: 0.966
  IC50: > 10.2 µM
[6]; [10]
  AUC: 0.574
  IC50: 4.97 µM
[6]; [11]
  AUC: 0.403
  IC50: 2.17 µM
[7]
  AUC: 0.882
  IC50: > 20 µM
[8]
  AUC: 0.987
  IC50: > 5.12 µM
[9]
  AUC: 0.675
  IC50: 38 nM

## D-283MED (medulloblastoma, adherent)
[1]
  AUC: 0.493
  IC50: 61.5 nM
[2]
  AUC: 0.989
  IC50: > 10.2 µM
[3]
  AUC: 0.991
  IC50: > 16 µM
[4]
  AUC: 0.988
  IC50: > 5 µM
[5]
  AUC: 0.975
  IC50: > 10.2 µM
[6]; [10]
  AUC: 0.586
  IC50: 5.25 µM
[6]; [11]
  AUC: 0.511
  IC50: 4.28 µM
[7]
  AUC: 0.984
  IC50: > 20 µM
[8]
  AUC: 0.988
  IC50: > 5.12 µM
[9]
  AUC: 0.688
  IC50: 39.9 nM

## NCI-H2009 (lung adenocarcinoma, adherent)
[1]
  AUC: 0.494
  IC50: 61.5 nM
[2]
  AUC: 0.982
  IC50: > 10.2 µM
[3]
  AUC: 0.875
  IC50: > 16 µM
[4]
  AUC: 0.975
  IC50: > 5 µM
[5]
  AUC: 0.966
  IC50: > 10.2 µM
[6]; [10]
  AUC: 0.634
  IC50: 7.48 µM
[6]; [11]
  AUC: 0.416
  IC50: 2.33 µM
[7]
  AUC: 0.969
  IC50: > 20 µM
[8]
  AUC: 0.983
  IC50: > 5.12 µM
[9]
  AUC: 0.563
  IC50: 18.8 nM

## ST486 (Burkitt lymphoma, suspension)
[1]
  AUC: 0.195
  IC50: 9.14 nM
[2]
  AUC: 0.328
  IC50: 0.226 µM
[3]
  AUC: 0.986
  IC50: > 16 µM
[4]
  AUC: 0.989
  IC50: > 5 µM
[5]
  AUC: 0.937
  IC50: > 10.2 µM
[6]; [10]
  AUC: 0.916
  IC50: > 50 µM
[6]; [11]
  AUC: 0.588
  IC50: 6.77 µM
[7]
  AUC: 0.868
  IC50: 14.8 µM
[8]
  AUC: 0.981
  IC50: > 5.12 µM
[9]
  AUC: 0.956
  IC50: > 200 nM

## KNS-81-FD (glioma, adherent)
[1]
  AUC: 0.763
  IC50: 501 nM
[2]
  AUC: 0.923
  IC50: > 10.2 µM
[3]
  AUC: 0.981
  IC50: > 16 µM
[4]
  AUC: 0.964
  IC50: > 5 µM
[5]
  AUC: 0.954
  IC50: > 10.2 µM
[6]; [10]
  AUC: 0.759
  IC50: 23.6 µM
[6]; [11]
  AUC: 0.87
  IC50: > 64 µM
[7]
  AUC: 0.866
  IC50: > 20 µM
[8]
  AUC: 0.977
  IC50: > 5.12 µM
[9]
  AUC: 0.506
  IC50: 13 nM

## MPP-89 (mesothelioma, adherent)
[1]
  AUC: 0.663
  IC50: 210 nM
[2]
  AUC: 0.939
  IC50: > 10.2 µM
[3]
  AUC: 0.98
  IC50: > 16 µM
[4]
  AUC: 0.954
  IC50: > 5 µM
[5]
  AUC: 0.969
  IC50: > 10.2 µM
[6]; [10]
  AUC: 0.884
  IC50: > 50 µM
[6]; [11]
  AUC: 0.712
  IC50: 19.3 µM
[7]
  AUC: 0.98
  IC50: > 20 µM
[8]
  AUC: 0.982
  IC50: > 5.12 µM
[9]
  AUC: 0.345
  IC50: 4.05 nM

## JHH-4 (liver, adherent)
[1]
  AUC: 0.559
  IC50: 92.8 nM
[2]
  AUC: 0.967
  IC50: > 10.2 µM
[3]
  AUC: 0.971
  IC50: > 16 µM
[4]
  AUC: 0.983
  IC50: > 5 µM
[5]
  AUC: 0.987
  IC50: > 10.2 µM
[6]; [10]
  AUC: 0.681
  IC50: 9.98 µM
[6]; [11]
  AUC: 0.598
  IC50: 7.42 µM
[7]
  AUC: 0.888
  IC50: > 20 µM
[8]
  AUC: 0.971
  IC50: > 5.12 µM
[9]
  AUC: 0.838
  IC50: 135 nM
